{"sequences": {"note": "Sequences of proteins named here, by UniProt entry; tags and fusion partners are left off.", "UniProt P9WPE7": "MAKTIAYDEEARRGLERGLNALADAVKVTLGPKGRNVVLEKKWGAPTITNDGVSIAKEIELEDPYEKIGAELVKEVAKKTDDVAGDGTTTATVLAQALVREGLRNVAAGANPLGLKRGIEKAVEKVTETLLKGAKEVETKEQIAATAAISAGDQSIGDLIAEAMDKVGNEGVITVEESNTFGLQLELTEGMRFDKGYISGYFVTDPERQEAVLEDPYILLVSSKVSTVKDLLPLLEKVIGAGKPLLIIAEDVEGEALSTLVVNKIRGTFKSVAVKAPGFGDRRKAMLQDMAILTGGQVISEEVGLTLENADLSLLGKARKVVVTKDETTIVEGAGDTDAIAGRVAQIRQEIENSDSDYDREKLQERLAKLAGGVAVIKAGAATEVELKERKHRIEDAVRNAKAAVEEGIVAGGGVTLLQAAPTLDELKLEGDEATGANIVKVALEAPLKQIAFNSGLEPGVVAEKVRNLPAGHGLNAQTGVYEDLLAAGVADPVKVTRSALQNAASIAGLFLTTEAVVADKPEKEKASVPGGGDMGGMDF"}, "source": "paper PMC4022732", "binders": {"B1": {"name": "Mtb InhA, M-PFC control fusion (protein, UniProt P9WGR1 1-269)", "chain": "MTGLLDGKRILVSGIITDSSIAFHIARVAQEQGAQLVLTGFDRLRLIQRITDRLPAKAPLLELDVQNEEHLASLAGRVTEAIGAGNKLDGVVHSIGFMPQTGMGINPFFDAPYADVSKGIHISAYSYASMAKALLPIMNPGGSIVGMDFDPSRAMPAYNWMTVAKSALESVNRFVAREAGKYGVRSNLVAAGPIRTLAMSAIVGGALGEEAGAQIQLLEEGWDQRAPIGWNMKDATPVAKTVCALLSDWLPATTGDIIYADGGAHTQLL"}, "B2": {"name": "Mtb Hip1 (Rv2224c), M-PFC prey fusion (enzyme, UniProt P9WHR3 31-520)", "chain": "CIRVVGGRARMAEPKLGQPVEWTPCRSSNPQVKIPGGALCGKLAVPVDYDRPDGDVAALALIRFPATGDKIGSLVINPGGPGESGIEAALGVFQTLPKRVHERFDLVGFDPRGVASSRPAIWCNSDADNDRLRAEPQVDYSREGVAHIENETKQFVGRCVDKMGKNFLAHVGTVNVAKDLDAIRAALGDDKLTYLGYSYGTRIGSAYAEEFPQRVRAMILDGAVDPNADPIEAELRQAKGFQDAFNNYAADCAKNAGCPLGADPAKAVEVYHSLVDPLVDPDNPRISRPARTKDPRGLSYSDAIVGTIMALYSPNLWQHLTDGLSELVDNRGDTLLALADMYMRRDSHGRYNNSGDARVAINCVDQPPVTDRDKVIDEDRRAREIAPFMSYGKFTGDAPLGTCAFWPVPPTSQPHAVSAPGLVPTVVVSTTHDPATPYKAGVDLANQLRGSLLTFDGTQHTVVFQGDSCIDEYVTAYLIGGTTPPSGAKC"}, "B3": {"name": "Mtb KdpE, M-PFC control fusion (protein, UniProt P9WGN1 1-226)", "chain": "MTLVLVIDDEPQILRALRINLTVRGYQVITASTGAGALRAAAEHPPDVVILDLGLPDMSGIDVLGGLRGWLTAPVIVLSARTDSSDKVQALDAGADDYVTKPFGMDEFLARLRAAVRRNTAAAELEQPVIETDSFTVDLAGKKVIKDGAEVHLTPTEWGMLEMLARNRGKLVGRGELLKEVWGPAYATETHYLRVYLAQLRRKLEDDPSHPKHLLTESGMGYRFEA"}}, "target": "Mtb GroEL2 (Rv0440, hsp65), M-PFC bait fusion (Mycobacterium tuberculosis H37Rv) (UniProt P9WPE7)", "experiment": "split reporter", "note": "Results are given in words; binding and its absence hold for the method and conditions named. Binding seen in cells or lysates may run through a third protein. Some results given as binding are weak or reduced against the parent protein; the word gives no strength. Sequences can lack the tags named with a protein.", "data": [{"binder": "B1", "values": [{"measurement": "binding", "value": "no binding"}]}, {"binder": "B2", "values": [{"measurement": "binding", "value": "binds"}]}, {"binder": "B3", "values": [{"measurement": "binding", "value": "no binding"}]}]}
